Measured values published in PubChem BioAssay AID504333 (National Center for Advancing Translational Sciences (NCATS), 2011).
The whole screen tested about 360,000 compounds, of which about 16,000 (4.4%) were called active. This list was built around the results that the source calls inconclusive (neither active nor inactive); the mix of calls is not that of the screen. Calls follow the shape of the dose curve; as a rule, active = well fitted inhibition curve with a large enough effect; inconclusive = small, poorly fitted or top-dose-only effect; inactive = no such curve, though single readings can be large or run the other way. Potencies beside an inconclusive call are fits to weak or partial responses and may not hold up.

target: Bromodomain adjacent to zinc finger domain protein 2B (Homo sapiens) (UniProt Q9UIF8); assay: qHTS Assay for Inhibitors of BAZ2B; conditions: AlphaScreen BAZ2B-H3K14Ac peptide displacement; activity change, negative = inhibition: at 114 µM (top of the series); also: nearly all actives have a fitted effect of over 60% in size
UniProt Q9UIF8, sequence (Q9UIF8 whole entry, looked up, the tested form may be a part): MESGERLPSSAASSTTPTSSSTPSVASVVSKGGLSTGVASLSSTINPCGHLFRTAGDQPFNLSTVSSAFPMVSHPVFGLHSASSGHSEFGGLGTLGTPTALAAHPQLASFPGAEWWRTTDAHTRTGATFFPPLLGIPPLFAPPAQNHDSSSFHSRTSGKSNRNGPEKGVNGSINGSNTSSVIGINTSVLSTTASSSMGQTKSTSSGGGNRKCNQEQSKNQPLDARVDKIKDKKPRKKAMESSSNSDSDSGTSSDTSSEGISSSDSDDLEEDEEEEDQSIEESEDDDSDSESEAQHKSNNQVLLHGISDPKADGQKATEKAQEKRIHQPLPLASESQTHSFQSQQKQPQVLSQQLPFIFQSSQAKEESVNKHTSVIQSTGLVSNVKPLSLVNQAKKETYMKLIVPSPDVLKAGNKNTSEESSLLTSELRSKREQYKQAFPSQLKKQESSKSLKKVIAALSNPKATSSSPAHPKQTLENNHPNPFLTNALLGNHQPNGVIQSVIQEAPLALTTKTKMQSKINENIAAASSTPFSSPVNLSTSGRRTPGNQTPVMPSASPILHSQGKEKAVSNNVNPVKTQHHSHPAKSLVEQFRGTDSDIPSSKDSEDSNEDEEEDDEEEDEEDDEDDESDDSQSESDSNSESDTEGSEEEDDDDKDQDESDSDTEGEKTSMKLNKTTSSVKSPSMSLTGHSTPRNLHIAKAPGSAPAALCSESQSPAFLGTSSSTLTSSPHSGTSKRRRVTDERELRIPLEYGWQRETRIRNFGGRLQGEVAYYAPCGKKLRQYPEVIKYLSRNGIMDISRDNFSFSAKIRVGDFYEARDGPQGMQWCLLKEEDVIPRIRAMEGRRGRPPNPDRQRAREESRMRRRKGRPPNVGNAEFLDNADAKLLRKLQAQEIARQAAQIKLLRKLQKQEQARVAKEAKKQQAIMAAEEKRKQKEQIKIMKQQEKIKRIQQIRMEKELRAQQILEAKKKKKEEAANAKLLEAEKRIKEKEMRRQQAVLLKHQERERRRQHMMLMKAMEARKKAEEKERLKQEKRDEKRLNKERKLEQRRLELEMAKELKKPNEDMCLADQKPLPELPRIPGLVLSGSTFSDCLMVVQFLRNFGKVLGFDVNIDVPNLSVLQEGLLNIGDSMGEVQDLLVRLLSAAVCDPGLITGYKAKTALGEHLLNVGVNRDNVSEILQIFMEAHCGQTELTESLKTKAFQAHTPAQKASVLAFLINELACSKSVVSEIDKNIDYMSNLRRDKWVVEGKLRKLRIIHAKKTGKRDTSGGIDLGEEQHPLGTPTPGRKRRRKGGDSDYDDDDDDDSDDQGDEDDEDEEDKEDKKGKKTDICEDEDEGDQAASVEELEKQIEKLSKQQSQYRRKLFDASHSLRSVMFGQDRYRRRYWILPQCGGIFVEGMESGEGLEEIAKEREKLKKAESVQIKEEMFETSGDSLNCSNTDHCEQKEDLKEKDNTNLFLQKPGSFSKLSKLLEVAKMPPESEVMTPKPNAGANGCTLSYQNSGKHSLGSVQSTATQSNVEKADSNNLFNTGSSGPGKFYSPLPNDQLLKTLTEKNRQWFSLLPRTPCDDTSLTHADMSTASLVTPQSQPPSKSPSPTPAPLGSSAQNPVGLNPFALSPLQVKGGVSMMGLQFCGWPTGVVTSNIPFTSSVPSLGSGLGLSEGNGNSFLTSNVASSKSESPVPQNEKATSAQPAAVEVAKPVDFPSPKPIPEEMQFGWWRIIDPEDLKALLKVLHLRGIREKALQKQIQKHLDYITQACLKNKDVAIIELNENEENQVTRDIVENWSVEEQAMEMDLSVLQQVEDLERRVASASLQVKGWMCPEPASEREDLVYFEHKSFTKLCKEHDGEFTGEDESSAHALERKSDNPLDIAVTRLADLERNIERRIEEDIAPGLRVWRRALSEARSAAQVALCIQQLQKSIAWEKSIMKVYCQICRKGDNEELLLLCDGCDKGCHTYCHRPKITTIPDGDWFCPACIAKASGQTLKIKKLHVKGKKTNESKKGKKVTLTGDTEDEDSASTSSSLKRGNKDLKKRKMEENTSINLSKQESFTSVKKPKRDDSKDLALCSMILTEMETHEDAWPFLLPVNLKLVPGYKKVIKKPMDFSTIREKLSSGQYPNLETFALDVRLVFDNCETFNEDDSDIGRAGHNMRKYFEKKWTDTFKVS
Summary of the method: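 AlphaScreen displacement: compounds (up to 110uM) incubated 30 min at room temperature with a preformed 50 nM BAZ2B/50 nM biotinylated H3K14Ac peptide complex in PBS pH 7.4 with Tween-20. Donor and acceptor beads at 10 ug/mL final added, 20 min light-protected before reading.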
% is scaled to controls: 0 for no effect and ±100 for the full control effect; potency is read from the fitted curve at half-maximal effect; tags tell the direction and shape of the fitted curve.

| SMILES | activity change, negative = inhibition | Potency |
| --- | --- | --- |
| CNC(=O)CSc1nnc(-c2ccco2)n1-c1cccc(C)c1C | inactive: 7.68% |  |
| COc1ccc(CCNC(=O)[C@H](C)N2C(=O)N3CCc4c([nH]c5ccccc45)[C@@]3(C)C2=O)cc1 |  | inconclusive: 35.5 µM [inhibitor, partial curve] |
| O=C(N/N=C(\c1ccccc1)c1cccnc1)c1cccc(F)c1 |  | active: 56.2 µM |
| Cc1ccc(Cl)cc1N1CCN(C(=S)NCc2ccco2)CC1 |  | inconclusive: 56.2 µM [inhibitor, partial curve] |
| O=C(Nc1nnc(-c2ccco2)s1)c1ccccc1 |  | inconclusive: 89.1 µM [inhibitor, single point] |
| CCOc1ccccc1C(=O)N1CC(=O)Nc2ccc(Cl)cc2C1c1ccccc1 (stereo unspecified) |  | inconclusive: 79.4 µM [inhibitor, single point] |
| Cc1ccc(-n2c(C)cc(C(=O)OCC(=O)N(C)C3CCS(=O)(=O)C3)c2C)cc1 (stereo unspecified) |  | inconclusive: 89.1 µM [inhibitor, single point] |
| CC(=O)N1CCN(c2ccc(NC(=O)c3cc4ccccc4o3)cc2)CC1 | inactive: -24.1% |  |
| CCOC(=O)c1c(C)[nH]c(C)c1C(=O)COC(=O)C1CCCN1S(=O)(=O)c1ccccc1F (stereo unspecified) |  | inconclusive: 70.8 µM [inhibitor, single point] |
| O=[N+]([O-])c1cccc(-c2cnc3ccccc3n2)c1 | inactive: -9.94% |  |
| CCOC(=O)c1sc(=S)n(-c2ccccc2)c1N(C(C)=O)C(C)=O |  | inconclusive: 89.1 µM [inhibitor, partial curve] |
| CC(NC(=O)CN(C)CC(=O)Nc1ccccc1Br)c1ccccc1 (stereo unspecified) |  | active: 31.6 µM |
| CC(C)=C1C(=O)NN(c2ccc(C)c(Cl)c2)C1=O |  | inconclusive: 50.1 µM [inhibitor, partial curve] |
| O=C(NCCc1c[nH]c2ccccc12)c1cc2ccccc2oc1=O |  | inconclusive: 50.1 µM [inhibitor, partial curve] |
| Cc1cccc2nc(CSc3nnnn3-c3ccccc3)cn12 | inactive: -1.94% |  |
| O=C(CN1CCOCC1)Nc1cc(Cl)ccc1Cl |  | inconclusive: 89.1 µM [inhibitor, single point] |
| COc1cc(/C=C2\S/C(=N/S(=O)(=O)Cc3ccccc3)NC2=O)c([N+](=O)[O-])cc1OC |  | inconclusive: 79.4 µM [inhibitor, single point] |
| CC(C)(C)c1ccc(OCCn2ccccc2=O)cc1 | inactive: 2.73% |  |
| C/C(=N\NC(=O)Cc1csc(N2CCOCC2)n1)c1ccccc1 | inactive: 1.58% |  |
| O=C(CN1CCN(c2ccccc2)CC1)Nc1ccc(Oc2ccccc2)cc1 |  | inconclusive: 39.8 µM [inhibitor, full curve, poor fit] |
| COc1cc2nc(CN3CCC(Cc4ccccc4)CC3)[nH]c(=O)c2cc1OC | inactive: 0.345% |  |
| O=C(O)c1ccc(-n2c(-c3cc(-c4ccco4)[nH]n3)n[nH]c2=S)cc1 |  | active: 44.7 µM |
| COc1ccc(-c2ccc3c(N)c(C(=O)c4cccc(OC)c4)sc3n2)cc1 | inactive: -18% |  |
| CN(C)CCCNc1oc(-c2cccc(Cl)c2)nc1C#N |  | inconclusive: 89.1 µM [inhibitor, single point] |

| SMILES | activity change, negative = inhibition | Potency |
| --- | --- | --- |
| CCc1nc(N2CCN(C(=S)NCCCOC)CC2)c2c3c(sc2n1)CCCC3 |  | inconclusive: 31.6 µM [inhibitor, partial curve] |
| COc1cccc(CN2CC(C(=O)NC3CCCCCC3)CCC2=O)c1 (stereo unspecified) | inactive: 2.27% |  |
| CCN(C(=O)CN1CCCc2ccccc21)c1c(N)n(Cc2ccccc2)c(=O)[nH]c1=O | inactive: 4.67% |  |
| CCOc1ccc(S(=O)(=O)NNS(=O)(=O)c2ccc(C)cc2C)cc1 | inactive: -23.6% |  |
| CC1CN(c2oc(Cc3cccc4ccccc34)nc2C#N)CC(C)O1 (stereo unspecified) |  | inconclusive: 12.6 µM [inhibitor, full curve] |
| CCC(=O)OCC(=O)Nc1ccc(OC)cc1[N+](=O)[O-] |  | inconclusive: 79.4 µM [inhibitor, single point] |
| O=S(=O)(Nc1ccc2nc(-c3cccc(Cl)c3)oc2c1)c1ccccc1 | inactive: -6.28% |  |
| CCCCCC1(C)NC(=S)N(c2ccccc2)N1 (stereo unspecified) |  | inconclusive: 79.4 µM [inhibitor, partial curve] |
| COC(=O)C1=C(C)NC(=O)/C1=C\c1cc(C)n(-c2ccc(F)cc2)c1C |  | inconclusive: 79.4 µM [inhibitor, single point] |
| CC(C)c1ccc(C2=C(O)c3ccccc3C(=O)C2=O)cc1 |  | inconclusive: 50.1 µM [inhibitor, partial curve] |
| COc1cc(C)c(S(=O)(=O)Nc2ccccc2F)cc1C |  | inconclusive: 89.1 µM [inhibitor, single point] |
| COc1ccc(OC)c(-c2cc(C(=O)NC(C)c3ccccc3)no2)c1 (stereo unspecified) | inactive: -0.452% |  |
| O=C(c1ccccc1)c1cc(Cl)ccc1N1C(=O)C=CC1=O |  | active: 79.4 µM |
| CCOc1ccc(NC(=S)N(CCCN2CCCC2)Cc2cccn2Cc2ccc(Cl)cc2)cc1 |  | inconclusive: 39.8 µM [inhibitor, partial curve] |
| CCOC(=O)c1c(C)oc2c1c1c(c3ccccc32)OCN(Cc2cccnc2)C1 |  | inconclusive: 25.1 µM [inhibitor, full curve] |
| O=C1NC(c2ccccn2)Nc2sc3c(c21)CCC3 (stereo unspecified) |  | inconclusive: 89.1 µM [inhibitor, single point] |
| COc1cc(/C=N/n2c(-c3ccc4c(c3)NC(=O)CO4)csc2=Nc2cccc(C)c2)ccc1O |  | active: 8.91 µM |
| COc1ccc(N2CSC3=C(C#N)C(c4cc(OC)ccc4OC)CC(=O)N3C2)c(OC)c1 (stereo unspecified) |  | active: 44.7 µM |
| CCOc1ccccc1NC(=O)CN(c1ccc(OC)cc1OC)S(=O)(=O)c1ccccc1[N+](=O)[O-] | inactive: -9.9% |  |
| CCOC(=O)N1CCC(N2Cc3cccc(C(=O)NCc4ccc5c(c4)OCO5)c3C2=O)CC1 |  | inconclusive: 35.5 µM [inhibitor, partial curve] |
| COc1ccccc1-c1nnc(C2CCN(S(=O)(=O)c3ccc([N+](=O)[O-])cc3)CC2)o1 |  | inconclusive: 79.4 µM [inhibitor, single point] |
| O=S(=O)(c1ccc(F)cc1)N1CCCC1 | inactive: -28.7% |  |
| CCCn1c(SCC(=O)Nc2ccc3c(c2)OCO3)nc2c1c(=O)n(C)c(=O)n2C | inactive: 6.96% |  |
| Cc1ccc(S(=O)(=O)N2CCOCC2)cc1C(=O)NCCCn1ccnc1 |  | inconclusive: 89.1 µM [inhibitor, single point] |

| SMILES | activity change, negative = inhibition | Potency |
| --- | --- | --- |
| Cc1c(Cl)cccc1NC(=O)Cn1c(=O)nc(-c2ccccc2)c2ccccc21 | inactive: -15.3% |  |
| Nc1nc2ccccc2n1CCOc1ccc(Br)cc1 |  | inconclusive: 79.4 µM [inhibitor, single point] |
| CCn1cnc2cc(NCc3cccs3)ccc21 |  | inconclusive: 35.5 µM [inhibitor, partial curve] |
| Cc1ccc(-c2nc3c(c(SCC(=O)N4CCOCC4)n2)Cc2c(CO)cnc(C)c2O3)cc1 |  | inconclusive: 39.8 µM [inhibitor, partial curve] |
| O=C1C=C(c2cccs2)CC(c2cccs2)C1n1cnc([N+](=O)[O-])c1 (stereo unspecified) |  | inconclusive: 89.1 µM [inhibitor, single point] |
| CC1(C)C(=O)Nc2ccccc2N1C(=O)COC(=O)CSc1ccc(Cl)cc1 |  | inconclusive: 79.4 µM [inhibitor, single point] |
| CCOC(=O)N1CCc2c(sc(NCc3ccc(OC)c(OC)c3OC)c2C(=O)Nc2ccc(OC)cc2OC)C1 |  | inconclusive: 44.7 µM [inhibitor, full curve, poor fit] |
| Cc1c(Cl)cccc1-n1c(SCC(=O)NCc2ccccc2Cl)nnc1-c1ccncc1 |  | inconclusive: 100 µM [inhibitor, single point] |
| COc1ccc(-c2nnnn2C)cc1S(=O)(=O)Nc1ccc(C)cc1C | inactive: -2.81% |  |
| O=C(CNC(=O)C(c1ccccc1)c1ccccc1)N/N=C/c1ccc(O)cc1O | inactive: -20.2% |  |
| COc1ccc(NC(=O)c2coc(C)c2)cc1 | inactive: -8% |  |
| O=C(CSc1nnc(NC(=O)C2CC(=O)N(c3ccc(F)cc3)C2)s1)NC1CCCC1 (stereo unspecified) | inactive: -18.7% |  |
| CCOc1ccc(-n2c(-c3ccccc3)c(C)n3c4c(=O)n(C)c(=O)n(C)c4nc23)cc1 | inactive: -15.9% |  |
| C=C(C)CC(Nc1ccc(OC)cc1)c1ccco1 (stereo unspecified) |  | active: 50.1 µM |
| COc1ccc(CNC(=O)c2[nH]c(C)c(C(C)=O)c2C)cc1 |  | inconclusive: 89.1 µM [inhibitor, single point] |
| Cc1cc(C)c2c(c1)/C(=c1/sc3n(c1=O)CN(c1ccccc1)CN=3)C(=O)N2 |  | inconclusive: 89.1 µM [inhibitor, single point] |
| Cc1ccc(S(=O)(=O)N(C(=O)c2ccncc2)c2ccc(OC(=O)c3ccncc3)c3ccccc23)c(C)c1 |  | inconclusive: 28.2 µM [inhibitor, full curve, poor fit] |
| CS(=O)(=O)C1=NN2C(=N)/C(=C\c3ccc(OCCOc4ccccc4)cc3)C(=O)N=C2S1 |  | active: 50.1 µM |
| COc1ccc(C(NC(=O)/C=C/c2ccco2)c2ccc(OC)c(OC)c2)cc1 (stereo unspecified) |  | inconclusive: 44.7 µM [inhibitor, partial curve] |
| COc1cc2c(cc1OC)C(NC(=O)c1ccc(C)cc1)CC2=O (stereo unspecified) | inactive: -2.47% |  |
| C#CCOCCOCCOCCNc1nc(N2CCN(C(=O)[C@H](Cc3cc4ccccc4[nH]3)n3cc([C@@H](N)CC(C)C)nn3)CC2)nc(N2CCN(C(=O)[C@H](Cc3cc4ccccc4[nH]3)n3cc([C@@H](N)CC(C)C)nn3)CC2)n1 |  | active: 44.7 µM |
| CCn1cc(C(=O)NCc2ccc(C)cc2)c(=O)c2cc(S(=O)(=O)N3CCCCCC3)ccc21 | inactive: 1.49% |  |
| O=C(CCc1nc2cccnc2n1Cc1cccs1)Nc1cccc(Cl)c1 | inactive: -15.7% |  |
